Results: article PMC9911399, “Two distinct binding modes provide the RNA-binding protein RbFox with extraordinary sequence specificity”
Where a chain is given by its changes, count along the chain named. The list shows a part of the results.

T1: RBFOX1 RRM (Homo sapiens, UniProt Q9NWB1 109-208)
T1 sequence: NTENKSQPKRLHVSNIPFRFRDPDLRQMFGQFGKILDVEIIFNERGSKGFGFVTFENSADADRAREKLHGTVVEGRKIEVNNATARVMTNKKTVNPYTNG

B1: AAAAGGU (DNA:RNA)
RNA: GGGAGACCGGAAUUCAGAUUGUCCAAAAGGUUUAAAUCCCGUCGUAGCCACCA
DNA 1: CAATCTGAATTCCGGTCTCCC
DNA 2: TGGTGGCTACGACGGGATT
B2: CAAUAAA (DNA:RNA)
RNA: B1 RNA with A25C, A28U, G29A, G30A, U31A
DNA 1: CAATCTGAATTCCGGTCTCCC
DNA 2: TGGTGGCTACGACGGGATT
B3: GUUGCUU (DNA:RNA)
RNA: B1 RNA with A25G, A26U, A27U, A28G, G29C, G30U
DNA 1: CAATCTGAATTCCGGTCTCCC
DNA 2: TGGTGGCTACGACGGGATT
B4: CACCCAC (DNA:RNA)
RNA: B1 RNA with A25C, A27C, A28C, G29C, G30A, U31C
DNA 1: CAATCTGAATTCCGGTCTCCC
DNA 2: TGGTGGCTACGACGGGATT
B5: GUGCCUA (DNA:RNA)
RNA: GGGAGACCGGAAUUCAGAUUGUCCGUGCCUAUUAAAUCCCGUCGUAGCCACCA
DNA 1: CAATCTGAATTCCGGTCTCCC
DNA 2: TGGTGGCTACGACGGGATT
B6: UCUACAC (DNA:RNA)
RNA: B1 RNA with A25U, A26C, A27U, G29C, G30A, U31C
DNA 1: CAATCTGAATTCCGGTCTCCC
DNA 2: TGGTGGCTACGACGGGATT
B7: CCAGCUC (DNA:RNA)
RNA: B5 RNA with G25C, U26C, G27A, C28G, A31C
DNA 1: CAATCTGAATTCCGGTCTCCC
DNA 2: TGGTGGCTACGACGGGATT
B8: AGACUAA (DNA:RNA)
RNA: B1 RNA with A26G, A28C, G29U, G30A, U31A
DNA 1: CAATCTGAATTCCGGTCTCCC
DNA 2: TGGTGGCTACGACGGGATT
B9: CUGAUUA (DNA:RNA)
RNA: B5 RNA with G25C, C28A, C29U
DNA 1: CAATCTGAATTCCGGTCTCCC
DNA 2: TGGTGGCTACGACGGGATT
B10: UGGACUC (DNA:RNA)
RNA: B5 RNA with G25U, U26G, C28A, A31C
DNA 1: CAATCTGAATTCCGGTCTCCC
DNA 2: TGGTGGCTACGACGGGATT
B11: AUCGUGA (DNA:RNA)
RNA: B1 RNA with A26U, A27C, A28G, G29U, U31A
DNA 1: CAATCTGAATTCCGGTCTCCC
DNA 2: TGGTGGCTACGACGGGATT
B12: CAAGGCC (DNA:RNA)
RNA: B1 RNA with A25C, A28G, G30C, U31C
DNA 1: CAATCTGAATTCCGGTCTCCC
DNA 2: TGGTGGCTACGACGGGATT
B13: GGUGGAA (DNA:RNA)
RNA: B5 RNA with U26G, G27U, C28G, C29G, U30A
DNA 1: CAATCTGAATTCCGGTCTCCC
DNA 2: TGGTGGCTACGACGGGATT
B14: CGACCGU (DNA:RNA)
RNA: B1 RNA with A25C, A26G, A28C, G29C
DNA 1: CAATCTGAATTCCGGTCTCCC
DNA 2: TGGTGGCTACGACGGGATT
B15: ACGCGGU (DNA:RNA)
RNA: B1 RNA with A26C, A27G, A28C
DNA 1: CAATCTGAATTCCGGTCTCCC
DNA 2: TGGTGGCTACGACGGGATT
B16: GGAGGUC (DNA:RNA)
RNA: B1 RNA with A25G, A26G, A28G, G30U, U31C
DNA 1: CAATCTGAATTCCGGTCTCCC
DNA 2: TGGTGGCTACGACGGGATT
B17: AAAAGUU (DNA:RNA)
RNA: B1 RNA with G30U
DNA 1: CAATCTGAATTCCGGTCTCCC
DNA 2: TGGTGGCTACGACGGGATT
B18: GAAAACU (DNA:RNA)
RNA: B1 RNA with A25G, G29A, G30C
DNA 1: CAATCTGAATTCCGGTCTCCC
DNA 2: TGGTGGCTACGACGGGATT
B19: AAGUGGC (DNA:RNA)
RNA: B1 RNA with A27G, A28U, U31C
DNA 1: CAATCTGAATTCCGGTCTCCC
DNA 2: TGGTGGCTACGACGGGATT
B20: UCGUACG (DNA:RNA)
RNA: B5 RNA with G25U, U26C, C28U, C29A, U30C, A31G
DNA 1: CAATCTGAATTCCGGTCTCCC
DNA 2: TGGTGGCTACGACGGGATT

Biological target: T1, RBFOX1 RRM
Assay: EMSA; HiTS-Eq, 1 nM pool, 10 min; buffer printed only for the single-RNA assays: 10 mM Tris pH 7.5, 150 mM NaCl, 3.4 mM EDTA, 0.001% NP-40, 30 C
Settings: tags: His6 N-terminal (pET28a); label: 5' 32P
Outline: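 These values rest on relative association constants, computed from read-count changes of each RNA species versus the control reaction and normalised to the cognate motif. Reads came from free RNA recovered by 8% native PAGE after purified RbFox RRM (wild type or mutant) at increasing concentrations was equilibrated for 10 min in 50 µL with 1 nM of a 5′-radiolabelled pool with 7 randomized nucleotides and DNA-annealed flanks.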

| Binder | binding signal |
| --- | --- |
| B1 | 0.00523 KA relative to UGCAUGU |
| B2 | 0.00103 KA relative to UGCAUGU |
| B3 | 0.0233 KA relative to UGCAUGU |
| B4 | 0.00185 KA relative to UGCAUGU |
| B5 | 0.0106 KA relative to UGCAUGU |
| B6 | 0.00441 KA relative to UGCAUGU |
| B7 | 0.00875 KA relative to UGCAUGU |
| B8 | 0.00288 KA relative to UGCAUGU |
| B9 | 0.011 KA relative to UGCAUGU |
| B10 | 0.0247 KA relative to UGCAUGU |
| B11 | 0.00772 KA relative to UGCAUGU |
| B12 | 0.00854 KA relative to UGCAUGU |
| B13 | 0.00994 KA relative to UGCAUGU |
| B14 | 0.0105 KA relative to UGCAUGU |
| B15 | 0.0119 KA relative to UGCAUGU |
| B16 | 0.00757 KA relative to UGCAUGU |
| B17 | 0.00166 KA relative to UGCAUGU |
| B18 | 0.00592 KA relative to UGCAUGU |
| B19 | 0.00766 KA relative to UGCAUGU |
| B20 | 0.0163 KA relative to UGCAUGU |
